Laboratory results from paper PMC5965893.
Results are given in words; binding and its absence hold for the method and conditions named. In cells and extracts the contact can be indirect. Some entries that bind do so weakly or less than the wild type. For some of these results: Where a sequence is shown, tags or fusion partners need not be part of it.

Sequences of proteins named here, by UniProt entry; tags and fusion partners are left off. Residues count along the entry.
UniProt Q00987: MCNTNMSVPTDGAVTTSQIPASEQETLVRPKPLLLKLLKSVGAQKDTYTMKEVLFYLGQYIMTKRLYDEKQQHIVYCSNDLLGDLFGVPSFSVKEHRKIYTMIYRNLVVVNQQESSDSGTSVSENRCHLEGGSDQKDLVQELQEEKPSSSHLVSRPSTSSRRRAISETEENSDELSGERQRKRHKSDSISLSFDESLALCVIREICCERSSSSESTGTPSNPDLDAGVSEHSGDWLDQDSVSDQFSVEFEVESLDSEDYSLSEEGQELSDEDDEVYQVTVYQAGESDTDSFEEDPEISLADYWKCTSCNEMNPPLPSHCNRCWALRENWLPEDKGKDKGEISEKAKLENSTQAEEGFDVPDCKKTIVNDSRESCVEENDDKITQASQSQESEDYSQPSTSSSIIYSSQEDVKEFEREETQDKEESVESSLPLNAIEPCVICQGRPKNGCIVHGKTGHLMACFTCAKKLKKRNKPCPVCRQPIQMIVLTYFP
UniProt Q16288, residues 496-641: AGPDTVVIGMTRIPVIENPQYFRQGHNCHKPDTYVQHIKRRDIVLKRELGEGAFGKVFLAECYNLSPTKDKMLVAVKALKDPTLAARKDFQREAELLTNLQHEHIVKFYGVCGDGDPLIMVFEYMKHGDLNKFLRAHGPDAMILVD

Columns and labels:
[1] = biological target: endogenous MDM2 (human (endogenous in SHEP)) (UniProt Q00987); test: proximity ligation; DuoLink PLA on SHEP cells fixed in 4% PFA and permeabilised; pairs of primary antibodies (anti-GFP or anti-Flag for the TrkC constructs; pan-importin, anti-Hey1 or anti-MDM2 for endogenous proteins); red spots counted per cell
[2] = biological target: GFP-tagged TrkC killer-fragment (TrkC-KF-GFP) (UniProt Q16288); test: as above
[3] = biological target: GFP-tagged TrkC killer-fragment (TrkC-KF-GFP) (UniProt Q16288); test: co-IP; transfected HEK293T cells lysed in 50 mM HEPES pH 7.6, 125 mM NaCl, 5 mM EDTA, 0.1% NP-40; immunoprecipitation with anti-GFP and protein G sepharose; western blot with anti-Flag

| Binder | binding [1] | binding [2] | binding [3] |
| --- | --- | --- | --- |
| endogenous Hey1 (protein, UniProt Q9Y5J3 1-304) MKRAHPEYSSSDSELDETIEVEKESADENGNLSSALGSMSPTTSSQILARKRRRGIIEKRRRDRINNSLSELRRLVPSAFEKQGSAKLEKAEILQMTVDHLKMLHTAGGKGYFDAHALAMDYRSLGFRECLAEVARYLSIIEGLDASDPLRVRLVSHLNNYASQREAASGAHAGLGHIPWGTVFGHHPHIAHPLLLPQNGHGNAGTTASPTEPHHQGRLGSAHPEAPALRAPPSGSLGPVLPVVTSASKLSPPLLSSVASLSAFPFSFGSFHLLSPNALSPSAPTQAANLGKPYRPWGTEIGAF | no binding | binds |  |
| Hey1-Flag (protein, UniProt Q9WV93 1-299) MKRAHPDYSSSDSELDETIEVEKESADENGNLSSALCSMSPTTSSQVLARKRRRGIIEKRRRDRINNSLSELRRLVPSAFEKQGSAKLEKAEILQMTVDHLKMLHTAGGKGYFDAHALAMDYRSLGFRECLAEVARYLSIIEGLDASDPLLVRLVSHLNNYASQREAASGAHGGLGHIPWGSAFGHHPHIAHPLLLPQNGHGNAGTAASPTEPHHQGRLASAHPEAPALRAPPSGGLGPVLPVVTSASKLSPPLLSSVASLSAFPFSFSSFHLLSPSTPTQAANLGKPYRPWGTEIGAF |  |  | binds |
| HeyL-Flag (protein, UniProt Q9DBX7 1-326) MKRPRAPSGSDGESDGPIDVGQENDLSQMARPLTTPSPSQMQARKKRRGIIEKRRRDRINSSLSELRRLVPTAFEKQGSSKLEKAEVLQMTVDHLKMLHASGGTGFFDARALAVDFRSIGFRECLTEVIRYLGVLEGPSSHADPVRIRLLSHLKSYAAEMEPSPTTTSALAFPVWPWSFLHSCPGLPSLNSQLAILGRVPGPVLPSISSPPYPISALRSAPVHRPAGTIPPTRRNLLPSRGVTSTQRAHLPERPAAPPPTALDARAARSIVPIPPCSPTTAPGAGKSDDNVSGSISSPCPSGPTGRPAGAVFYHSWVSEITEIGAF |  |  | no binding |
